Sequences with one replicate were seen in a single cluster, so their values are uncertain.
Test system: ATP
Assay: switch fluorescence ratio, 500 uM ATP over buffer (Cy3 cluster intensity, sum of 5 cycles each) (fold (ratio)); higher = stronger signal-on switching upon ATP binding; sequences stand for … in TCGTCGGCAGCGTCAGATGTGTATAAGAGACAGTTTTTTTTTTTTTTTTTTTTTTTTT…TC
Details: aptamer strand: ATP DNA aptamer (quencher-CACCTGGGGGAGTATTGCGGAGGAAGG + anchor), 100 nM annealed; ATP concentration: 500 uM; one replicate
In short: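 The fluorescence ratio divides summed target-cycle Cy3 intensity by summed buffer-cycle Cy3 intensity for each cluster and is averaged per switch-domain sequence. Cy3-labelled switching-strand clusters on a modified Illumina MiSeq flow-cell were annealed to 100 nM quencher-labelled ATP aptamer, then imaged in selection buffer and again after 15 min with 500 uM ATP at 22 °C. Five such cycles were run, with NaOH stripping and re-annealing between them, and clusters outside 100-1000 RFU were excluded.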
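Also: ATP exposure 15 min at 22 °C before imaging.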

Row | Sequence | switch fluorescence ratio
1 | TTTTCCTTC | 1.01
2 | CGTCAATTGC | 1.82
3 | GTTTCGGGAA | 0.965
4 | GCCTTACTC | 2.31
5 | AAGGTATCGA | 0.965
6 | CTACGCCGTG | 0.982
7 | CTAGTTACGA | 1.02
8 | TCACGTCTCA | 1.01
9 | CCTCACGACA | 3.24
10 | GAGCGCGCAG | 1.09
11 | ATCGAAATGA | 1.03
12 | TTAGTCCCA | 0.967
13 | ACGGGAGCGG | 0.99
14 | GGCCTGTGGG | 1.01
15 | TTCGGATACA | 0.992
16 | GTCCCGGGGG | 1.06
17 | TTTGTTTTCC | 1.01
18 | AAGTATGGAA | 1.02
19 | ATCAGGGCCT | 0.99
20 | TCCTCCATC | 3.41
21 | TAGTTTGACA | 0.999
22 | AAGATAACAC | 1.03
23 | ATAACAGGTG | 0.928

Row | Sequence | switch fluorescence ratio
24 | GAACGGTGCT | 1.02
25 | AATGTGATTC | 0.975
26 | CCCGGATTTT | 0.989
27 | GATTAATGGT | 1.03
28 | TTTACAAAAT | 0.975
29 | TTATACCCAA | 1.1
30 | AGTAAGGGTG | 1.05
31 | CTCCCGTTTT | 1.01
32 | TAAATGAGAT | 0.977
33 | AGATGCCACC | 1.06
34 | CTGGTTAGG | 0.971
35 | CCGTATGGCT | 0.983
36 | ATAAGGTCCG | 0.999
37 | GGCTCCGGG | 1
38 | ACCCCCAGGT | 1.47
39 | CTTATGGCTA | 0.946
40 | ACCCTCGTTG | 1
41 | TTTACAGGCA | 1.01
42 | CGGGAGCGAG | 1.01
43 | TGTGCATCTG | 1.03
44 | GCTGTTTCCT | 1
45 | TTTAAAGAG | 0.96
46 | GGGTAATGAA | 1.02

Row | Sequence | switch fluorescence ratio
47 | CAACTGGGAA | 1.02
48 | AGTCTGAACA | 0.981
49 | GCTTTTTAAG | 0.972
50 | ATATGGGGCT | 0.998
51 | ACAGGTTGTG | 1.06
52 | CGCAGGTCGT | 1.06
53 | CCCAGCTTGG | 1.07
54 | CATGCCCTCC | 1.2
55 | TGTTTAGTTA | 0.961
56 | CTCAAAGTCG | 1.05
57 | GAGTAAGCTT | 0.986
58 | TTATACTTTG | 0.919
59 | TCTTCAAACA | 1.04
60 | TACTATCAGA | 0.987
61 | GCTATCCTGG | 0.99
62 | ATATAATTGG | 1.05
63 | TCAGCCCCCC | 1.02
64 | TTTGTATCCC | 1.16
65 | CCGAAGGTAG | 1.12
66 | GAATAGGGGT | 1
67 | ATGAAGGGT | 1.02
68 | TCTTTCAAAT | 1.04
69 | TGTAGGCAGC | 1.02

Row | Sequence | switch fluorescence ratio
70 | CGGGGCAATG | 2.92
71 | TCAGGGGAGA | 0.999
72 | GTAGATTTTC | 0.984
73 | TCCTATATC | 1
74 | TTCGCTTCTG | 0.991
75 | AAGGAGCGAA | 1.02
76 | GCGTTTAGGC | 1.05
77 | CAGCCGCTTC | 1.39
78 | ATTAATTG | 0.935
79 | CGACTCCTAG | 0.996
80 | TGGAATCCGT | 0.974
81 | CGTCCGTCAT | 1.33
82 | ATCTATTTAC | 1.06
83 | AAGGTGACGG | 0.99
84 | GCCCTCGGGC | 1.07
85 | AACCAAAA | 0.988
86 | CGTCTGATGC | 1.04
87 | CTAGAAAGTG | 1.06
88 | TCACATATTT | 1.02
89 | CCGAAGTTGG | 1.8
90 | CGGTAGAAAT | 1.02
91 | CATCGGGGAA | 1.02
92 | GCTAATCCCG | 1.07

Row | Sequence | switch fluorescence ratio
93 | TTGGTAGATA | 0.983
94 | TCATCCCAGC | 1.96
95 | GGGTCTAGAC | 0.979
96 | ATTTGTTCAG | 0.985
97 | ATTATAACAA | 1.01
98 | CAGCACGGGG | 0.978
99 | GACACCGATC | 1.26
100 | TAATGTATCC | 0.955
101 | GAAATAATTA | 0.991
102 | ACGGGTAAGG | 0.977
103 | AAATCCTGTG | 0.983
104 | GAGTTAACGC | 1.06
105 | GGGAAAGACA | 1.01
106 | CTCGGGTTAG | 0.971
107 | TGACGCTGTC | 1.37
108 | AGTATCGTCA | 0.968
109 | TGCACGCCGC | 1.2
110 | CTATGAAATG | 1.05
111 | CTGTTAACGG | 0.961
112 | AACACCCAGC | 1.16
113 | CCGGCCATGT | 1.05
114 | CGGCGAGCCA | 1.05
115 | ACTATTCCGA | 1.05

Row | Sequence | switch fluorescence ratio
116 | CTTAATACGG | 1.03
117 | TGATTGCCTG | 1.03
118 | GGAGAACGGC | 1.05
119 | TATGAGTGAT | 1.08
120 | CGGCATCGGG | 1.02
121 | ATGCGAAAGG | 1.02
122 | GCCGTAGCAT | 1.04
123 | GGGACACGGA | 1.1
124 | TACGGGATCC | 1.03
125 | ACAAGAATAT | 0.982
126 | GTGTCCGGAG | 1.08
127 | TTCCGTGGGT | 1.01
128 | TAGCCGCGTC | 1.03
129 | GTTAGACGTG | 1.02
130 | TGGCGTGGGC | 1.01
131 | GGCGTGTATC | 1.1
132 | TTGACATTTT | 1.06
133 | GCTGTCAGGC | 1.02
134 | TGGAAGGAGG | 0.976
135 | AAACGAGGCC | 1.03
136 | GTAGTGC | 1.07
137 | CGTACGACAC | 1.47
138 | CTTCATAATT | 1.04

Row | Sequence | switch fluorescence ratio
139 | CCCCCACGGA | 1.61
140 | TGGACGAACT | 1.34
141 | ATGGTAATGT | 0.972
142 | TCATGAGACG | 1.04
143 | TCGACTTTGA | 0.978
144 | TCTCACGTTC | 1.06
145 | TTGCCCCGAT | 1.07
146 | CTTAGGAAGA | 0.977
147 | CCTCTCGGCG | 1.29
148 | TTAGGAGAT | 1.01
149 | TCTGATCTAT | 1.01
150 | CGTAGTTCTG | 0.95
151 | CGCGAAACTC | 1.47
152 | TGTAATATGT | 0.961
153 | ACCATGGGG | 0.996
154 | CTTAGGGGTT | 0.992
155 | TTGTTCCTGA | 1
156 | GGTTAACTGA | 1.02
157 | ATCATGGAGC | 0.963

— the supplement of paper PMC10126150
